# Results reported in PubChem BioAssay AID1347073 (National Center for Advancing Translational Sciences (NCATS), 2019).
# Hit rate of the full screen: of about 45,000 compounds, about 200 (0.44%) were called active. Not shown: some 7% with an inconclusive outcome. The call rests on the fitted dose curve; in most records, active means well fitted activation curve with a large enough effect; inconclusive means small, poorly fitted or top-dose-only effect; inactive means no such curve, though single readings can be large or run the other way. Some of the results follow.
# Test: qHTS of TDP-43 Inhibitors: NCGC Sytravon Library Screen; further: 0% is about no effect; nearly all actives have a fitted effect of over 55% in size
# Conditions: yeast TDP-43 toxicity rescue, BacTiter-Glo growth, 24 h; series mostly up to 46.1 µM; growth rescue (activation): at the top concentration
# Summary of the method: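 TDP-43-expressing yeast, pregrown in raffinose, seeded at OD600 0.02 in galactose medium with compound for 24 hr at 30 deg C. Growth read by BacTiter-Glo luminescence, so rescue of toxicity appears as activation.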
row,SMILES,growth rescue (activation)
1,COc1cc2c(cc1OC)C(c1ccccc1C(F)(F)F)CC(=O)N2 (stereo not given),inactive: -6.11%
2,CCOc1ccccc1N1CC(C(=O)Nc2c(C)n(C)n(-c3ccccc3)c2=O)CC1=O (stereo not given),inactive: -2.82%
3,CCOC(=O)c1c(C)[nH]c(C(=O)COC(=O)C2=NNC(=O)CC2)c1C,inactive: 1.09%
4,COc1cccc(C(=O)Nc2ccc(NC(=O)c3ccco3)cn2)c1,inactive: 12.5%
5,O=C(CSc1ncn[nH]1)NN(c1ccccc1)c1ccccc1,inactive: -0.165%
6,OC[C@H]1O[C@@H](c2nc(-c3nc(-c4ccc(F)cc4)no3)cs2)[C@H](O)[C@@H]1O,inactive: 4.73%
7,O=C(NC(=S)NCC1CCCO1)c1ccc(Cl)cc1Cl (stereo not given),inactive: -2.07%
8,CN(C)c1ccc(C(=O)N2CCCC(N3CCN(Cc4ccc5c(c4)OCO5)CC3)C2)cc1 (stereo not given),inactive: -2.47%
9,COc1ccccc1/C=C/C(=O)NCC(=O)N/N=C/c1ccc(C(=O)O)cc1,inactive: -0.863%
10,COc1cccc(NC(=O)COC(=O)C2C3CC4OC(=O)C2C4C3)c1 (stereo not given),inactive: 6.44%
11,O=C(/C=C/c1ccco1)NCc1ccco1,inactive: 9.74%
12,COCC(C)n1c(C)cc(C(=O)COc2ccc(N(C)S(=O)(=O)c3ccc(NC(C)=O)cc3)cc2)c1C (stereo not given),inactive: -5.32%
13,Cc1onc(C(=O)Nc2cccnc2Cl)c1[N+](=O)[O-],inactive: 11%
14,O=C(CCN1CCOCC1)N/N=C/c1cc([N+](=O)[O-])ccc1OC(F)F,inactive: 14.5%
15,Cc1ccc(NC(=O)CSc2nc(N)cc(=O)[nH]2)cc1S(=O)(=O)N1CCCCCC1,inactive: -5.76%
16,S=C1NC2(CCCCCC2)N=C1c1ccccc1,inactive: 25%
17,O=C1CCCN1CC1CCN(Cc2nc(CC3CC3)no2)CC1,inactive: 12.8%
18,Cn1c(=O)c2cc(S(=O)(=O)Nc3cccc(F)c3)ccc2n(C)c1=O,inactive: 25.3%
19,CCc1ccccc1Nc1nc(N)nc(COC(=O)CCC(=O)c2ccc(F)cc2)n1,inactive: 13.5%
20,C=CCN1CC2CC3(COc4cc(C)cc(C)c4)C=CC2(O3)C1=O (stereo not given),inactive: 23.5%
21,CC(=O)Nc1cccc(NC(=O)C(F)(F)F)c1,inactive: 0.538%
22,COc1cccc(NC(=O)C/C(C)=N/NC(=O)C2CCCCC2)c1,inactive: -7.36%
23,O=C(Nc1cccc(C(F)(F)F)c1)c1csc([C@H]2C[C@H](O)[C@@H](CO)O2)n1,inactive: -9.27%
24,COc1ccc(Nc2c3c(nc4c(-c5ccccc5)c(C)nn24)CCC3)cc1,inactive: -1.98%
25,Cc1c(C(=O)NCC2CCCO2)cccc1[N+](=O)[O-] (stereo not given),inactive: 17%
26,O=C(C(Cc1ccc(Cl)cc1)NS(=O)(=O)c1ccccc1)N1CC[C@@]2(O)CCCC[C@H]2C1 (stereo not given in full),inactive: -0.149%
27,NS(=O)(=O)c1ccc(CCNC(=O)CN2CCN(Cc3cccc(C(F)(F)F)c3)CC2)cc1,inactive: -3.12%

row,SMILES,growth rescue (activation)
1,O=C(CCN1C(=O)C2C3C=CC(C3)C2C1=O)Nc1ccc2ncccc2c1 (stereo not given),inactive: 8.67%
2,O=C(O)c1ccc(NC(=O)C2(c3ccccc3)CCCC2)cc1,inactive: 22%
3,CC(NC(=O)c1cccs1)c1nnc(SCc2ccc(Cl)cc2Cl)n1C (stereo not given),inactive: 12.1%
4,O=C(CN(CC1CCCO1)C(=O)CNS(=O)(=O)c1ccccc1)NCc1ccc(F)cc1 (stereo not given),inactive: 1.89%
5,COc1cccc(C2c3[nH]c4ccccc4c3CCN2Cc2ncc[nH]2)c1 (stereo not given),inactive: 20.1%
6,CN(C(=O)NC1CCCCC1)c1ccccc1,inactive: 14.2%
7,CCOC(=O)CSc1nc2cc3c(cc2cc1C#N)OCCO3,inactive: 1.79%
8,O=C(COc1ccccc1)Nc1ccc(S(=O)(=O)Nc2ncccn2)cc1,inactive: -10.8%
9,COCCCNC(=O)c1csc([C@H]2C[C@H](O)[C@@H](CO)O2)n1,inactive: 10.5%
10,CCOc1ccc(N2C(=O)CC(N(CCc3ccc(S(N)(=O)=O)cc3)C(C)=O)C2=O)cc1 (stereo not given),inactive: 2.18%
11,Cc1nc(NC(=O)c2ccc(Cl)cc2)nc2cc3c(cc12)OCO3,inactive: 3.81%
12,O=C1Nc2ccccc2N=C(c2ccccc2)C1Br (stereo not given),inactive: 0.312%
13,Cc1ccc(CNC(=O)c2cc3sc(Cl)cc3n2C)cc1,inactive: 19.1%
14,CCC(=O)c1ccc(N2CCN(S(=O)(=O)c3ccccc3)CC2)c(F)c1,inactive: 1.36%
15,CCNc1nc(Cl)nc(N(NC(C)=O)C(C)C)n1,inactive: -0.829%
16,CCOC(=O)c1c(C)[nH]c(=S)c(C#N)c1-c1ccccc1,inactive: 30.1%
17,Cc1ccc(CNc2nc(C)cs2)cc1,inactive: -21%
18,CCNS(=O)(=O)c1ccc(CCC(=O)Nc2ccc(C(=O)OC)cc2)cc1,inactive: 4.61%
19,O=C(CSc1nc(-c2ccccc2)cc(=O)[nH]1)Nc1ccc(Br)cc1,inactive: -19.5%
20,O=C(CNC(=O)c1ccc(Br)cc1)NCc1cccnc1,inactive: 5.21%
21,C/C(=N/NC(=O)c1cccc(N2CCCC2=O)c1)c1ccncc1,inactive: 10.7%
22,COc1ccc(NS(=O)(=O)c2cccc(C(=O)NCC(c3cccs3)N3CCOCC3)c2)cc1 (stereo not given),inactive: 13%
23,CCOC(=O)/C(=C/c1ccc(OC(F)F)cc1)C1=Nn2c(nnc2-c2ccc(Cl)cc2)SC1,inactive: 14.4%
24,COc1c(C)cc(C(=O)C2CCCN(C(=O)c3ccc4[nH]ccc4c3)C2)cc1C (stereo not given),inactive: 8.55%
25,O=S(=O)(CC(CN1CCCCC1)N1CCCCC1)c1ccc2ccccc2c1 (stereo not given),inactive: 8.31%
26,CC(C)=C(NC(=O)c1ccccc1)C(=O)N/N=C(\C)c1ccccc1O,inactive: 12.4%
27,O=c1c2ccccc2cnn1Cc1nnc(-c2cccs2)o1,inactive: -17%

row,SMILES,growth rescue (activation)
1,Cc1ccc(S(=O)(=O)N2CCN(Cc3ccccc3)CC2)c(C)c1N(C)S(=O)(=O)c1ccccc1,inactive: 7.61%
2,O=C1Nc2cc(C(=O)N3CCN(c4ccc(F)cc4)CC3)ccc2NC1CSCc1cccc(F)c1 (stereo not given),inactive: -21.2%
3,CCc1ccc(NS(=O)(=O)c2ccc3c(c2)CCN3C(=O)CCC(=O)O)cc1,inactive: -6.11%
4,c1cc(-c2ccc3c(c2)CCO3)n2cnnc2c1,inactive: 5.38%
5,COC(C(=O)Nc1ccc(S(=O)(=O)Nc2ccc(F)cc2)cc1)c1ccccc1 (stereo not given),inactive: -14.3%
6,CC(=O)Nc1cccc(-c2ccnc3c2CC(C(=O)NCc2ccc(N(C)C)cc2)O3)c1 (stereo not given),inactive: -1.43%
7,COc1ccc(/C(O)=C2/C(=O)C(=O)N(CC3CCCO3)C2c2ccc(O)c(OC)c2)cc1 (stereo not given),inactive: -2.9%
8,Cc1cc(C)c2c(=O)[nH]c(SCC(=O)Nc3cccc(S(=O)(=O)N(C)C)c3)nc2n1,inactive: 26.5%
9,COc1ccc(OC)c(N/C=C/C(=C(C#N)C#N)N(C)C)c1,inactive: 1.29%
10,CCCSc1nc2sc3c(c2c(=O)[nH]1)CC(C)CC3 (stereo not given),inactive: 10%
11,Cc1ccc2c(c1)C1C[N+](C)(CC(=O)c3ccccc3)CCC1N2C(=O)c1ccccc1Cl (stereo not given),inactive: 28.3%
12,COCCNC(=S)N/N=C(\C)CCc1ccc2c(c1)OCO2,inactive: 11.7%
13,COc1ccc(/C=C/C(=O)Nc2ccc(S(=O)(=O)Nc3cc(C)nc(C)n3)cc2)cc1OC,inactive: 15%
14,CN1CCN(NC(=O)c2cccc(C(F)(F)F)c2)CC1,inactive: 21.7%
15,Cc1cc(C(=O)NCCc2ccc(Cl)cc2)n(-c2ccccc2)n1,inactive: -4.61%
16,CCOC(=O)C1(C(F)(F)F)N=C(C(F)(F)F)Nc2cc(C)c(C)cc21 (stereo not given),inactive: 2.95%
17,OCCCCNCc1ccc(OCc2ccccc2)cc1,inactive: 13.6%
18,CC(C)OC(=O)c1ccc(COC(=O)CNC(=O)c2ccco2)cc1,inactive: 19%
19,COc1ccc(CNC(=O)c2cc3cccc(OC)c3oc2=N)cc1,inactive: 16.3%
20,O=C(/C=C/c1c(Cl)nc2ccccn12)Nc1ccc(F)cc1,inactive: 4.46%
21,CC(C)(C)c1ccc(OCC(=O)NN2Cc3ccccc3C2=N)cc1,inactive: 5.53%
22,COc1ccccc1N1CCN(c2ccc(Cl)nn2)CC1,inactive: 19.5%
23,CCOC(=O)Cc1csc(NC(=S)NC(=O)c2cccc([N+](=O)[O-])c2)n1,inactive: -9.08%
24,Cc1ccc(-c2ccc(CCC(=O)O)n2NC(N)=S)cc1,inactive: 6.36%
25,Cc1nn(Cc2ccccc2)c(C)c1NC(=O)CCCn1nc([N+](=O)[O-])cc1C,inactive: -2.15%
26,O=C(O)c1cccc(-c2nc3ccccc3[nH]2)c1,inactive: -21.7%
27,N#C/C(=C/c1ccc(Br)s1)C(=O)NCCc1c[nH]c2ccccc12,inactive: 1.43%

row,SMILES,growth rescue (activation)
1,O=C(Cc1ccccc1)N1CCNCC1,inactive: 2.21%
2,Cc1cc2oc(=O)cc(CNc3ccccc3F)c2cc1O,inactive: -2.41%
3,CC(=O)c1ccc(N2Cc3ccccc3/C2=N\C(=O)Nc2ccc(Cl)cc2)cc1,inactive: 14.6%
4,Cc1ccc(NC(=O)CSc2nnc3ccccn23)cc1S(=O)(=O)N1CCOCC1,inactive: 0.896%
5,CCOc1cccc(OCCNC2CCCC2)c1,inactive: -37.4%
6,Cc1ccccc1S(=O)(=O)NC(=O)C1(C)CCN1C(=O)CCc1ccc(Cl)cc1Cl (stereo not given),inactive: 13.4%
7,CN(C)c1cccc(C(=O)OCc2cc(=O)oc3cc(O)ccc23)c1,inactive: 35.4%
8,Cc1ccccc1C(=O)Oc1cc(N)n(S(C)(=O)=O)n1,inactive: 14.9%
9,Cn1cnc(S(=O)(=O)N2CCCCC2c2cc(C(=O)Nc3ccccc3Cl)no2)c1 (stereo not given),inactive: 2.27%
10,O=C(c1ccc2c(c1)N(Cc1ccccc1)C(=O)c1ccccc1S2(=O)=O)N1CCOCC1,inactive: 16.2%
11,CCN(C(=O)c1cccs1)c1nc(-c2ccc(OC)cc2)cs1,inactive: 1.72%
12,COC(=O)Cc1ccc(OC2(C)CCN(Cc3ccc(-c4ccccn4)cc3)C2)cc1 (stereo not given),inactive: -5.86%
13,Cc1nn2c(=O)c(NC(=O)c3ccc(Cl)cc3)cnc2s1,inactive: 0.165%
14,CC(C)(C)c1cc(C(=O)N/N=C/c2ccccc2O)n(-c2ccccc2)n1,inactive: -3.7%
15,Cc1nc2sc(C(c3ccc(F)cc3)N3CCN(C(=O)c4ccco4)CC3)c(O)n2n1 (stereo not given),inactive: 8.21%
16,Cc1ccc(C)c2[nH]c(=O)c(CN(CCN3CCCC3)C(=O)Nc3ccc(F)cc3)cc12,inactive: -19.9%
17,O=C(COc1ccc(S(=O)(=O)N2CCCC2)cc1)N1CCCC1,inactive: 19.7%
18,Cc1nnc(NC(=O)CSc2n[nH]c(-c3ccccc3C)n2)s1,inactive: -6.66%
19,COc1ccc(CCNC(=O)c2cccc(-n3cnnn3)c2)cc1,inactive: 9.49%
20,COC(=O)c1sccc1NC(=O)c1ccncc1,inactive: 14.9%
21,COc1ccc(N=C2SC(C(=O)Nc3ccc4c(c3)OCO4)CC(=O)N2C)cc1 (stereo not given),inactive: 19.7%
22,COc1cc(NC(=O)COC(=O)/C=C/c2c(C)nn(-c3ccc(F)cc3)c2Cl)cc(OC)c1,inactive: 3.48%
23,CCOc1ccc(CCNC(=O)CN2C(=O)CCSc3ccccc32)cc1,inactive: 13.1%
24,COc1ccc(Cc2nnc(N/N=C/c3ccc(O)cc3)[nH]c2=O)cc1OC,inactive: 5.61%
